B1: P1AD8749: CEA-split-DOTAM-VH hemibody targeting CH1A1A; heavy chains SEQ ID NO: 28 and 32, light chain SEQ ID NO: 34 (antibody)
heavy 1: QVQLVQSGAEVKKPGASVKVSCKASGYTFTEFGMNWVRQAPGQGLEWMGWINTKTGEATYVEEFKGRVTFTTDTSTSTAYMELRSLRSDDTAVYYCARWDFAYYVEAMDYWGQGTTVTVSSASTKGPSVFPLAPSSKSTSGGTAALGCLVKDYFPEPVTVSWNSGALTSGVHTFPAVLQSSGLYSLSSVVTVPSSSLGTQTYICNVNHKPSNTKVDKKVEPKSCDKTHTCPPCPAPEAAGGPSVFLFPPKPKDTLMISRTPEVTCVVVDVSHEDPEVKFNWYVDGVEVHNAKTKPREEQYNSTYRVVSVLTVLHQDWLNGKEYKCKVSNKALGAPIEKTISKAKGQPREPQVCTLPPSRDELTKNQVSLSCAVKGFYPSDIAVEWESNGQPENNYKTTPPVLDSDGSFFLVSKLTVDKSRWQQGNVFSCSVMHEALHNHYTQKSLSLSPG
heavy 2: QVQLVQSGAEVKKPGASVKVSCKASGYTFTEFGMNWVRQAPGQGLEWMGWINTKTGEATYVEEFKGRVTFTTDTSTSTAYMELRSLRSDDTAVYYCARWDFAYYVEAMDYWGQGTTVTVSSASTKGPSVFPLAPSSKSTSGGTAALGCLVKDYFPEPVTVSWNSGALTSGVHTFPAVLQSSGLYSLSSVVTVPSSSLGTQTYICNVNHKPSNTKVDKKV[human IgG1 Fc with changes not listed]GGGGSGGGGSGGGGSGGGGSVTLKESGPVLVKPTETLTLTCTVSGFSLSTYSMSWIRQPPGKALEWLGFIGSRGDTYYASWAKGRLTISKDTSKSQVVLTMTNMDPVDTATYYCARERDPYGGGAYPPHLWGRGTLVTVSS
light: DIQMTQSPSSLSASVGDRVTITCKASAAVGTYVAWYQQKPGKAPKLLIYSASYRKRGVPSRFSGSGSGTDFTLTISSLQPEDFATYYCHQYYTYPLFTFGQGTKLEIKRTVAAPSVFIFPPSDEQLKSGTASVVCLLNNFYPREAKVQWKVDNALQSGNSQESVTEQDSKDSTYSLSSTLTLSKADYEKHKVYACEVTHQGLSSPVTKSFNRGEC
B2: P1AF0713: CEA CH1A1A SPLIT antibody with DOTA-VH-AST; SEQ ID NO: 100, 101, light chain 103 (antibody)
heavy 1: B1 heavy 1
heavy 2: QVQLVQSGAEVKKPGASVKVSCKASGYTFTEFGMNWVRQAPGQGLEWMGWINTKTGEATYVEEFKGRVTFTTDTSTSTAYMELRSLRSDDTAVYYCARWDFAYYVEAMDYWGQGTTVTVSSASTKGPSVFPLAPSSKSTSGGTAALGCLVKDYFPEPVTVSWNSGALTSGVHTFPAVLQSSGLYSLSSVVTVPSSSLGTQTYICNVNHKPSNTKVDKKV[human IgG1 Fc with changes not listed]GGGGSGGGGSGGGGSGGGGSHVKLQESGPGLVQPSQSLSLTCTVSGFSLTDYGVHWVRQSPGKGLEWLGVIWSGGGTAYNTALISRLNIYRDNSKNQVFLEMNSLQAEDTAMYYCARRGSYPYNYFDAWGQGTTVTVSSAST
light: B1 light
B3: P1AF0712: CEA CH1A1A SPLIT antibody with DOTA-VL; SEQ ID NO: 97, 98, light chain 103 (antibody)
heavy 1: QVQLVQSGAEVKKPGASVKVSCKASGYTFTEFGMNWVRQAPGQGLEWMGWINTKTGEATYVEEFKGRVTFTTDTSTSTAYMELRSLRSDDTAVYYCARWDFAYYVEAMDYWGQGTTVTVSSASTKGPSVFPLAPSSKSTSGGTAALGCLVKDYFPEPVTVSWNSGALTSGVHTFPAVLQSSGLYSLSSVVTVPSSSLGTQTYICNVNHKPSNTKVDKKV[human IgG1 Fc with changes not listed]
heavy 2: QVQLVQSGAEVKKPGASVKVSCKASGYTFTEFGMNWVRQAPGQGLEWMGWINTKTGEATYVEEFKGRVTFTTDTSTSTAYMELRSLRSDDTAVYYCARWDFAYYVEAMDYWGQGTTVTVSSASTKGPSVFPLAPSSKSTSGGTAALGCLVKDYFPEPVTVSWNSGALTSGVHTFPAVLQSSGLYSLSSVVTVPSSSLGTQTYICNVNHKPSNTKVDKKVEPKSCDKTHTCPPCPAPEAAGGPSVFLFPPKPKDTLMISRTPEVTCVVVDVSHEDPEVKFNWYVDGVEVHNAKTKPREEQYNSTYRVVSVLTVLHQDWLNGKEYKCKVSNKALGAPIEKTISKAKGQPREPQVCTLPPSRDELTKNQVSLSCAVKGFYPSDIAVEWESNGQPENNYKTTPPVLDSDGSFFLVSKLTVDKSRWQQGNVFSCSVMHEALHNHYTQKSLSLSPGGGGGSGGGGSGGGGSGGGGSQAVVIQESALTTPPGETVTLTCGSSTGAVTASNYANWVQEKPDHLFTGLIGGHNNRPPGVPARFSGSLIGDKAALTIAGTQTEDEAIYFCALWYSDHWVIGGGTKLTVL
light: B1 light
B4: P1AD8592: CEA-split-DOTAM-VL hemibody targeting CH1A1A; heavy chains SEQ ID NO: 30 and 33, light chain SEQ ID NO: 34 (antibody)
heavy 1: QVQLVQSGAEVKKPGASVKVSCKASGYTFTEFGMNWVRQAPGQGLEWMGWINTKTGEATYVEEFKGRVTFTTDTSTSTAYMELRSLRSDDTAVYYCARWDFAYYVEAMDYWGQGTTVTVSSASTKGPSVFPLAPSSKSTSGGTAALGCLVKDYFPEPVTVSWNSGALTSGVHTFPAVLQSSGLYSLSSVVTVPSSSLGTQTYICNVNHKPSNTKVDKKV[human IgG1 Fc with changes not listed]
heavy 2: QVQLVQSGAEVKKPGASVKVSCKASGYTFTEFGMNWVRQAPGQGLEWMGWINTKTGEATYVEEFKGRVTFTTDTSTSTAYMELRSLRSDDTAVYYCARWDFAYYVEAMDYWGQGTTVTVSSASTKGPSVFPLAPSSKSTSGGTAALGCLVKDYFPEPVTVSWNSGALTSGVHTFPAVLQSSGLYSLSSVVTVPSSSLGTQTYICNVNHKPSNTKVDKKVEPKSCDKTHTCPPCPAPEAAGGPSVFLFPPKPKDTLMISRTPEVTCVVVDVSHEDPEVKFNWYVDGVEVHNAKTKPREEQYNSTYRVVSVLTVLHQDWLNGKEYKCKVSNKALGAPIEKTISKAKGQPREPQVCTLPPSRDELTKNQVSLSCAVKGFYPSDIAVEWESNGQPENNYKTTPPVLDSDGSFFLVSKLTVDKSRWQQGNVFSCSVMHEALHNHYTQKSLSLSPGGGGGSGGGGSGGGGSGGGGSIQMTQSPSSLSASVGDRVTITCQSSHSVYSDNDLAWYQQKPGKAPKLLIYQASKLASGVPSRFSGSGSGTDFTLTISSLQPEDFATYYCLGGYDDESDTYGFGGGTKVEIK
light: B1 light

How the values were obtained:
SC BxPC3 tumors = assay: Protocol 144: biodistribution of pretargeted 212Pb-DOTAM, 2-step vs 3-step PRIT; assay type: in vivo, SCID mice; conditions: 6 hours after ^212Pb-DOTAM injection, ±SD, n=4
Protocol: All experimental protocols were reviewed and approved by the local authorities (Comité Regional d'Ethique de l'Experimentation Animale du Limousin [CREEAL], Laboratoire Départemental d'Analyses et de Recherches de la Haute-Vienne). Female severe combined immunodeficiency (SCID) mice (Charles River) were maintained under specific and opportunistic pathogen free (SOPF) conditions with daily cycles of light and darkness (12 h/12 h), in line with ethical guidelines. No manipulations were performed during the first 5 days after arrival, to allow the animals to acclimatize to the new environment. Animals were controlled daily for clinical symptoms and detection of adverse events.
Solid xenografts were established by subcutaneous (SC) injection of CEA-expressing tumor cells in cell culture media mixed 1:1 with Corning® Matrigel® basement membrane matrix (growth factor reduced; cat No. 354230). Tumor volumes were estimated through manual calipering 3 times per week, calculated according to the formula: volume 0.5× length×width^2. Additional tumor measurements were made as needed depending on the tumor growth rate. […]

[1] = FACS staining using DOTA-FITC: recruitment of Pb-DOTA-FITC to MKN-45 cells by SPLIT antibodies; assay type: binding; conditions: antibodies 10 μg/mL, separate or combined, FIG. 24
Protocol: MKN-45 cells were detached from the culture bottle using Trypsin and were counted using a Casy cell counter. After pelleting at 4° C., 300 g the cells were resuspended in FACS Buffer (2.5% FCS in PBS), adjusted to 2.0E+06 cells/mL dispensed to 96-well PP V-bottom-Platte (25 μL/well=5.0E+04Zellen/well).
The CEA specific SPLIT antibodies (P1AF0712 or P1AF0713respectively) were adjusted to 40 μg/mL in FACS buffer, resulting in a final concentration of 10 μg/mL. Both antibodies were added to the cells either combined or separated and followed by buffer and incubated at 4° C. for 1 h. Subsequently, Pb-DOTA labeled with FITC was added to the cells in equimolar ratio to the antibodies and incubated for 1 h at 4° C. The cells were then washed twice in FACS buffer and resuspended in 70 μl/well FACS buffer for measurement using a FACS Canto (BD, Pharmingen). […] Only a combination of both SPLIT halves was able to recruit Pb-DOTAM-FITC to the target cells (FIG. 24).
EC50 was determined for the SPLIT antibodies using either secondary antibody based detection, (488, top panel) or Pb-DOTA-FITC (DOTA-FITC, bottom panel)

Molecule | tumor uptake of ^212Pb (SC BxPC3 tumors) | fluorescence signal of Pb-DOTA-FITC on MKN-45 cells [1]
B1 | no accumulation of radioactivity in tumors | –
B2 | – | neither of the SPLIT halves was giving rise to a fluorescence signal
B3 | – | neither of the SPLIT halves was giving rise to a fluorescence signal
B4 | no accumulation of radioactivity in tumors | –
